# Reference: article PMC6212790
# This is one part of the list. At the low end of the ranking the order means little.
# Molecular target: T1, GST-Rok-C97-191 (UniProt O34857)
# T1 sequence: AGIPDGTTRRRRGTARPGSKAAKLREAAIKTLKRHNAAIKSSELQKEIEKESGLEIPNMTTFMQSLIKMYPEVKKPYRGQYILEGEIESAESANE
# Assay: protein binding microarray;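 also: rank score from −0.5 (least bound) to 0.5 (best bound)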
# Conditions: Rok is a gene silencer of Bacillus subtilis; high values mean tight binding; most listed sequences are background and not binding sites; double strand, one strand shown
row,Sequence,binding signal
1,ACAGTGGT,-0.0396 E-score
2,ACAACATC,-0.0659 E-score
3,CGTCACGC,-0.156 E-score
4,ACGAGCCT,-0.114 E-score
5,CAAGGCTA,-0.188 E-score
6,AGCATGAC,-0.187 E-score
7,CGTAGGTC,-0.234 E-score
8,AGATAACA,0.279 E-score
9,GTCGTTGA,0.0109 E-score
10,CTAAAGAC,-0.046 E-score
11,ATCGTAAG,0.0194 E-score
12,AGTGATTG,-0.145 E-score
13,CCAAGAGG,-0.117 E-score
14,CTCAACAC,0.006 E-score
15,CCCATTCA,-0.252 E-score
16,CGACATAG,0.00977 E-score
17,AGCTGACT,0.0109 E-score
18,GAGGTCAA,-0.0196 E-score
19,AAACCAAC,-0.0784 E-score
20,TCAACGAA,0.04 E-score
21,TCCGTACA,0.0658 E-score
22,GTTGCTGA,-0.0618 E-score
23,AGAGCAGA,-0.0404 E-score
24,AACACGAG,0.00492 E-score
25,CACGTCAG,-0.195 E-score

row,Sequence,binding signal
1,ACACTGCA,0.0245 E-score
2,AACTGTAT,0.0405 E-score
3,CGGTTCCC,-0.207 E-score
4,GGCTATAA,-0.00372 E-score
5,AGCATGAA,0.0324 E-score
6,CAGTCCGG,-0.236 E-score
7,CCCAATCA,-0.378 E-score
8,ACTGTCAT,0.00202 E-score
9,GGCCACAA,-0.134 E-score
10,AACCACGC,-0.218 E-score
11,AATCAGTC,-0.116 E-score
12,AGATACCC,-0.0435 E-score
13,CGAAATCG,0.0639 E-score
14,CAACGAGG,-0.207 E-score
15,CACCGGTC,-0.204 E-score
16,GCAGTACA,0.145 E-score
17,TCACCAAA,0.12 E-score
18,ACAAAAAA,0.136 E-score
19,CGCCGCTC,-0.333 E-score
20,TCTCTAAA,-0.109 E-score
21,CCTGTGTC,-0.0736 E-score
22,AACTGCAG,0.14 E-score
23,CATAGAAC,0.02 E-score
24,CGCTCGGA,-0.29 E-score
25,ATACGAGA,-0.0415 E-score

row,Sequence,binding signal
1,ACCCCTTG,-0.18 E-score
2,CTGCAAAG,-0.00253 E-score
3,GGGTTTTA,0.0754 E-score
4,GGCCAACC,-0.234 E-score
5,CTGTCATC,0.0136 E-score
6,AGTATTAA,0.306 E-score
7,AACTCCGG,0.0581 E-score
8,CCGCATAG,-0.133 E-score
9,ACCGGTTA,0.0683 E-score
10,TAGTTAAA,0.281 E-score
11,CTCCCTTA,-0.0378 E-score
12,CTGGGAGA,-0.0538 E-score
13,AGAGTTCC,-0.0293 E-score
14,AGTTAAGC,-0.107 E-score
15,ACTCTTAA,0.00552 E-score
16,AGTCGCCG,-0.175 E-score
17,ATGAATGC,0.0811 E-score
18,ACACCCGT,-0.0646 E-score
19,AATGAGGT,0.0652 E-score
20,CGGTTCTC,0.0914 E-score
21,TAGCCCAA,-0.0821 E-score
22,AGATTGAT,0.0235 E-score
23,GCAAATTA,0.22 E-score
24,TAACACGA,0.00599 E-score
25,CATAGAAA,0.105 E-score

row,Sequence,binding signal
1,CATTTCTA,0.306 E-score
2,GATCACAA,-0.217 E-score
3,TCTTGGCA,-0.0228 E-score
4,AACCGGTA,0.182 E-score
5,AGTCCACC,-0.304 E-score
6,CGTTCTAA,0.116 E-score
7,ACGATCGG,0.132 E-score
8,CGCGCCTA,-0.142 E-score
9,CACGCCAG,-0.0945 E-score
10,AGACATGG,-0.234 E-score
11,CATAGCCC,-0.0723 E-score
12,ATCGATCC,-0.0605 E-score
13,ATCCCATC,0.118 E-score
14,GTACGCAA,0.0401 E-score
15,CCTTATGC,-0.116 E-score
16,GAGAGCAA,-0.203 E-score
17,CGAGGAGC,-0.311 E-score
18,CATGCCTC,-0.195 E-score
19,ATTTCGTA,0.212 E-score
20,AAATACTT,0.195 E-score
21,TACTCCCA,0.0915 E-score
22,CCCATGAA,-0.00596 E-score
23,CGCCCCCA,-0.0863 E-score
24,AATCGGTG,-0.0998 E-score
25,CTCAGGCC,-0.23 E-score

row,Sequence,binding signal
1,ATCATGTG,0.0404 E-score
2,GTCATCCA,-0.184 E-score
3,GGCTTCAA,0.0213 E-score
4,ATTCATAG,0.274 E-score
5,AGGCCGGG,-0.365 E-score
6,AACACACA,-0.0212 E-score
7,AAGTCAGT,0.0416 E-score
8,CCCCCGGA,-0.283 E-score
9,AGCTCGTC,-0.149 E-score
10,CGAACTAA,0.135 E-score
11,CTTCGGAA,-0.0432 E-score
12,ACCAACAG,0.0332 E-score
13,AACGTGTA,-0.00204 E-score
14,CCCTAGCA,-0.0672 E-score
15,GATTATGC,0.165 E-score
16,AACCATGT,0.02 E-score
17,CCTAGACA,-0.185 E-score
18,ACGGGTAG,0.0714 E-score
19,GACACTAC,-0.0975 E-score
20,CTCAGAAG,-0.263 E-score
21,AGCCTTGC,-0.291 E-score
22,ATTGTTGA,0.102 E-score
23,AGGGATAG,0.0205 E-score
24,CCGATTCC,-0.211 E-score
25,GCCCTACC,0.0439 E-score

row,Sequence,binding signal
1,ACACATAT,0.073 E-score
2,CATTGCCG,0.0726 E-score
3,GTAGTTAA,0.405 E-score
4,CCTCAGCA,-0.243 E-score
5,AGGAGATA,0.0913 E-score
6,GGGGAGAA,-0.215 E-score
7,CAGCGCAG,-0.174 E-score
8,CCCGAAGC,-0.267 E-score
9,AGCTCTCA,-0.0429 E-score
10,ACGCCCAT,-0.205 E-score
11,GATGGTGA,0.0589 E-score
12,CAGTGGTA,0.232 E-score
13,ATTCGAAG,-0.0327 E-score
14,CTGGTGCA,-0.139 E-score
15,AGTTACTC,0.188 E-score
16,CTGACCAC,-0.115 E-score
17,TGATACAA,0.253 E-score
18,AATGGACT,0.133 E-score
19,CATCGGGG,-0.333 E-score
20,GTATCATA,0.284 E-score
21,GGGGGGAA,-0.187 E-score
22,CACAAGGA,-0.22 E-score
23,CACTCCAG,-0.153 E-score
24,AGGGCACA,-0.171 E-score
25,AGGGGATC,-0.126 E-score

row,Sequence,binding signal
1,ACACGTTA,-0.0113 E-score
2,CAACAATG,0.0621 E-score
3,CAATCGGC,-0.141 E-score
4,AATTCCAT,0.0835 E-score
5,AAATAGTA,0.427 E-score
6,ATGAAATG,0.148 E-score
7,CGATCTAG,0.26 E-score
8,AGCTAAGC,-0.0319 E-score
9,CCAAGTGG,-0.13 E-score
10,ACATTAGA,0.19 E-score
11,ATTCCATC,0.157 E-score
12,GTGGAAAC,-0.0423 E-score
13,ATCACTCG,0.0113 E-score
14,CGAGGCAC,-0.157 E-score
15,CTGGCTCC,-0.351 E-score
16,AAGGTTGA,0.063 E-score
17,AGTCCGAA,-0.0979 E-score
18,AACATAAT,0.1 E-score
19,AATAAGAT,0.266 E-score
20,GTGTTTGA,-0.0225 E-score
21,CCAAAACC,-0.308 E-score
22,ACACTACA,0.294 E-score
